This is one part of the list.
Assays:
Assay in all cases: glycan array binding signal (z-score within array); higher = stronger binding
Conditions in all cases: glycan notation: IUPAC condensed, linker removed; mutation: K176L
Fuc(a1-2)Gal = molecular target: Fuc(a1-2)Gal
In short: (§1)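 The Consortium for Functional Glycomics database supplied 3228 glycan arrays, of which those lacking an available protein sequence were dropped. The binding signal, a within-array Z-score, was averaged across arrays of the same protein sequence and across linkers. Negative scores can be read as non-binding.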

Fuc(a1-2)Gal(b1-3)GalNAc = molecular target: Fuc(a1-2)Gal(b1-3)GalNAc
In short: as §1

[1] = molecular target: Fuc(a1-2)Gal(b1-3)GalNAc(a1-3)[Fuc(a1-2)]Gal(b1-4)Glc
In short: as §1

[2] = molecular target: Fuc(a1-2)Gal(b1-3)GalNAc(a1-3)[Fuc(a1-2)]Gal(b1-4)GlcNAc
In short: as §1

[3] = molecular target: Fuc(a1-2)Gal(b1-3)GalNAc(b1-3)Gal
In short: as §1

[4] = molecular target: Fuc(a1-2)Gal(b1-3)GalNAc(b1-3)Gal(a1-4)Gal(b1-4)Glc
In short: as §1

[5] = molecular target: Fuc(a1-2)Gal(b1-3)GalNAc(b1-4)[Neu5Ac(a2-3)]Gal(b1-4)Glc
In short: as §1

Fuc(a1-2)Gal(b1-3)GlcNAc = molecular target: Fuc(a1-2)Gal(b1-3)GlcNAc
In short: as §1

[6] = molecular target: Fuc(a1-2)Gal(b1-3)GlcNAc(b1-2)Man(a1-3)[Fuc(a1-2)Gal(b1-3)GlcNAc(b1-2)Man(a1-6)]Man(b1-4)GlcNAc(b1-4)GlcNAc
In short: as §1

[7] = molecular target: Fuc(a1-2)Gal(b1-3)GlcNAc(b1-3)Gal(b1-4)Glc
In short: as §1

[8] = molecular target: Fuc(a1-2)Gal(b1-3)GlcNAc(b1-3)[Fuc(a1-3)[Gal(b1-4)]GlcNAc(b1-6)]Gal(b1-4)Glc
In short: as §1

[9] = molecular target: Fuc(a1-2)Gal(b1-3)[Fuc(a1-4)]GlcNAc
In short: as §1

[10] = molecular target: Fuc(a1-2)Gal(b1-3)[Fuc(a1-4)]GlcNAc(b1-2)Man(a1-3)[Fuc(a1-2)Gal(b1-3)[Fuc(a1-4)]GlcNAc(b1-2)Man(a1-6)]Man(b1-4)GlcNAc(b1-4)GlcNAc
In short: as §1

[11] = molecular target: Fuc(a1-2)Gal(b1-3)[Fuc(a1-4)]GlcNAc(b1-3)[Fuc(a1-3)[Gal(b1-4)]GlcNAc(b1-6)]Gal(b1-4)Glc
In short: as §1

[12] = molecular target: Fuc(a1-2)Gal(b1-3)[Fuc(a1-4)]GlcNAc(b1-3)[Gal(b1-4)GlcNAc(b1-6)]Gal(b1-4)Glc
In short: as §1

Fuc(a1-2)Gal(b1-4)Glc = molecular target: Fuc(a1-2)Gal(b1-4)Glc
In short: as §1

Fuc(a1-2)Gal(b1-4)Glc6S = molecular target: Fuc(a1-2)Gal(b1-4)Glc6S
In short: as §1

Fuc(a1-2)Gal(b1-4)GlcNAc = molecular target: Fuc(a1-2)Gal(b1-4)GlcNAc
In short: as §1

[13] = molecular target: Fuc(a1-2)Gal(b1-4)GlcNAc(b1-2)Man(a1-3)[Fuc(a1-2)Gal(b1-4)GlcNAc(b1-2)Man(a1-6)]Man(b1-4)GlcNAc(b1-4)GlcNAc
In short: as §1

[14] = molecular target: Fuc(a1-2)Gal(b1-4)GlcNAc(b1-3)Gal(b1-4)GlcNAc
In short: as §1

[15] = molecular target: Fuc(a1-2)Gal(b1-4)GlcNAc(b1-3)Gal(b1-4)GlcNAc(b1-3)Gal(b1-4)GlcNAc
In short: as §1

[16] = molecular target: Fuc(a1-2)Gal(b1-4)GlcNAc(b1-3)GalNAc
In short: as §1

[17] = molecular target: Fuc(a1-2)Gal(b1-4)GlcNAc6S
In short: as §1

[18] = molecular target: Fuc(a1-2)Gal(b1-4)[Fuc(a1-3)]GlcNAc
In short: as §1

[19] = molecular target: Fuc(a1-2)Gal(b1-4)[Fuc(a1-3)]GlcNAc(b1-2)Man(a1-3)[Fuc(a1-2)Gal(b1-4)[Fuc(a1-3)]GlcNAc(b1-2)Man(a1-6)]Man(b1-4)GlcNAc(b1-4)GlcNAc
In short: as §1

[20] = molecular target: Fuc(a1-2)Gal(b1-4)[Fuc(a1-3)]GlcNAc(b1-3)Gal(b1-4)[Fuc(a1-3)]GlcNAc
In short: as §1

[21] = molecular target: Fuc(a1-2)Gal(b1-4)[Fuc(a1-3)]GlcNAc(b1-3)Gal(b1-4)[Fuc(a1-3)]GlcNAc(b1-3)Gal(b1-4)[Fuc(a1-3)]GlcNAc
In short: as §1

Fuc(a1-2)Gal6S(b1-4)Glc = molecular target: Fuc(a1-2)Gal6S(b1-4)Glc
In short: as §1

[22] = molecular target: Fuc(a1-2)Gal6S(b1-4)Glc6S
In short: as §1

[23] = molecular target: Fuc(a1-2)Gal6S(b1-4)GlcNAc
In short: as §1

Fuc(a1-2)[Gal(a1-3)]Gal = molecular target: Fuc(a1-2)[Gal(a1-3)]Gal
In short: as §1

[24] = molecular target: Fuc(a1-2)[Gal(a1-3)]Gal(b1-3)GlcNAc
In short: as §1

[25] = molecular target: Fuc(a1-2)[Gal(a1-3)]Gal(b1-3)GlcNAc(b1-2)Man(a1-3)[Fuc(a1-2)[Gal(a1-3)]Gal(b1-3)GlcNAc(b1-2)Man(a1-6)]Man(b1-4)GlcNAc(b1-4)GlcNAc
In short: as §1

[26] = molecular target: Fuc(a1-2)[Gal(a1-3)]Gal(b1-4)Glc
In short: as §1

[27] = molecular target: Fuc(a1-2)[Gal(a1-3)]Gal(b1-4)GlcNAc
In short: as §1

[28] = molecular target: Fuc(a1-2)[Gal(a1-3)]Gal(b1-4)GlcNAc(b1-2)Man(a1-3)[Fuc(a1-2)[Gal(a1-3)]Gal(b1-4)GlcNAc(b1-2)Man(a1-6)]Man(b1-4)GlcNAc(b1-4)GlcNAc
In short: as §1

[29] = molecular target: Fuc(a1-2)[Gal(a1-3)]Gal(b1-4)[Fuc(a1-3)]GlcNAc
In short: as §1

[30] = molecular target: Fuc(a1-2)[Gal(a1-4)]Gal(b1-4)GlcNAc
In short: as §1

[31] = molecular target: Fuc(a1-2)[GalNAc(a1-3)]Gal
In short: as §1

[32] = molecular target: Fuc(a1-2)[GalNAc(a1-3)]Gal(b1-3)GalNAc(a1-3)[Fuc(a1-2)]Gal(b1-4)GlcNAc
In short: as §1

[33] = molecular target: Fuc(a1-2)[GalNAc(a1-3)]Gal(b1-3)GlcNAc
In short: as §1

[34] = molecular target: Fuc(a1-2)[GalNAc(a1-3)]Gal(b1-3)GlcNAc(b1-2)Man(a1-3)[Fuc(a1-2)[GalNAc(a1-3)]Gal(b1-3)GlcNAc(b1-2)Man(a1-6)]Man(b1-4)GlcNAc(b1-4)GlcNAc
In short: as §1

[35] = molecular target: Fuc(a1-2)[GalNAc(a1-3)]Gal(b1-4)Glc
In short: as §1

[36] = molecular target: Fuc(a1-2)[GalNAc(a1-3)]Gal(b1-4)GlcNAc
In short: as §1

[37] = molecular target: Fuc(a1-2)[GalNAc(a1-3)]Gal(b1-4)GlcNAc(b1-2)Man(a1-3)[Fuc(a1-2)[GalNAc(a1-3)]Gal(b1-4)GlcNAc(b1-2)Man(a1-6)]Man(b1-4)GlcNAc(b1-4)GlcNAc
In short: as §1

[38] = molecular target: Fuc(a1-2)[GalNAc(a1-3)]Gal(b1-4)GlcNAc(b1-3)Gal(b1-4)GlcNAc
In short: as §1

[39] = molecular target: Fuc(a1-2)[GalNAc(a1-3)]Gal(b1-4)GlcNAc(b1-3)Gal(b1-4)GlcNAc(b1-3)Gal(b1-4)GlcNAc
In short: as §1

[40] = molecular target: Fuc(a1-2)[GalNAc(a1-3)]Gal(b1-4)[Fuc(a1-3)]GlcNAc
In short: as §1

[41] = molecular target: Fuc(a1-2)[GalNAc(a1-4)]Gal(b1-4)GlcNAc
In short: as §1

[42] = molecular target: Fuc(a1-2)[GalNAc(b1-3)]Gal
In short: as §1

Fuc(a1-3)GlcNAc = molecular target: Fuc(a1-3)GlcNAc
In short: as §1

[43] = molecular target: Fuc(a1-3)[Gal(b1-4)]Glc6S
In short: as §1

[44] = molecular target: Fuc(a1-3)[Gal(b1-4)]GlcNAc
In short: as §1

[45] = molecular target: Fuc(a1-3)[Gal(b1-4)]GlcNAc(b1-2)Man(a1-3)[Fuc(a1-3)[Gal(b1-4)]GlcNAc(b1-2)Man(a1-6)]Man(b1-4)GlcNAc(b1-4)GlcNAc
In short: as §1

[46] = molecular target: Fuc(a1-3)[Gal(b1-4)]GlcNAc(b1-3)Gal(b1-3)[Fuc(a1-4)]GlcNAc
In short: as §1

[47] = molecular target: Fuc(a1-3)[Gal(b1-4)]GlcNAc(b1-3)GalNAc
In short: as §1

[48] = molecular target: Fuc(a1-3)[Gal(b1-4)]GlcNAc(b1-4)Gal(b1-4)[Fuc(a1-3)]GlcNAc
In short: as §1

[49] = molecular target: Fuc(a1-3)[Gal(b1-4)]GlcNAc(b1-4)Gal(b1-4)[Fuc(a1-3)]GlcNAc(b1-4)Gal(b1-4)[Fuc(a1-3)]GlcNAc
In short: as §1

[50] = molecular target: Fuc(a1-3)[Gal(b1-4)]GlcNAc(b1-6)[Gal(b1-3)GlcNAc(b1-3)]Gal(b1-4)Glc
In short: as §1

[51] = molecular target: Fuc(a1-3)[Gal(b1-4)]GlcNAc6S
In short: as §1

B1: Gal 3 (Homo sapiens), P17931 (protein)
chain: MADNFSLHDALSGSGNPNPQGWPGAWGNQPAGAGGYPGASYPGAYPGQAPPGAYPGQAPPGAYHGAPGAYPGAPAPGVYPGPPSGPGAYPSSGQPSAPGAYPATGPYGAPAGPLIVPYNLPLPGGVVPRMLITILGTVKPNANILDFQRGNDVAFHFNPRFNENNRRVIVCNTLLDNNWGREERQSVFPFESGKPFKIQVLVEPDHFKVAVNDAHLLQYNHRVKKLNEISKLGISGDIDLTSASYTMI
- glycan array binding signal (z-score) (Fuc(a1-2)Gal): -0.266
- glycan array binding signal (z-score) (Fuc(a1-2)Gal(b1-3)GalNAc): -0.262
- glycan array binding signal (z-score) [1]: -0.261
- glycan array binding signal (z-score) [2]: -0.268
- glycan array binding signal (z-score) [3]: -0.267
- glycan array binding signal (z-score) [4]: -0.259
- glycan array binding signal (z-score) [5]: -0.267
- glycan array binding signal (z-score) (Fuc(a1-2)Gal(b1-3)GlcNAc): -0.077
- glycan array binding signal (z-score) [6]: -0.266
- glycan array binding signal (z-score) [7]: 1.58
- glycan array binding signal (z-score) [8]: -0.27
- glycan array binding signal (z-score) [9]: -0.275
- glycan array binding signal (z-score) [10]: -0.251
- glycan array binding signal (z-score) [11]: -0.258
- glycan array binding signal (z-score) [12]: -0.271
- glycan array binding signal (z-score) (Fuc(a1-2)Gal(b1-4)Glc): -0.263
- glycan array binding signal (z-score) (Fuc(a1-2)Gal(b1-4)Glc6S): -0.267
- glycan array binding signal (z-score) (Fuc(a1-2)Gal(b1-4)GlcNAc): -0.23
- glycan array binding signal (z-score) [13]: 0.996
- glycan array binding signal (z-score) [14]: 5.06
- glycan array binding signal (z-score) [15]: 5.51
- glycan array binding signal (z-score) [16]: -0.266
- glycan array binding signal (z-score) [17]: -0.263
- glycan array binding signal (z-score) [18]: -0.266
- glycan array binding signal (z-score) [19]: -0.257
- glycan array binding signal (z-score) [20]: -0.263
- glycan array binding signal (z-score) [21]: -0.232
- glycan array binding signal (z-score) (Fuc(a1-2)Gal6S(b1-4)Glc): -0.268
- glycan array binding signal (z-score) [22]: -0.272
- glycan array binding signal (z-score) [23]: -0.268
- glycan array binding signal (z-score) (Fuc(a1-2)[Gal(a1-3)]Gal): -0.269
- glycan array binding signal (z-score) [24]: 1.19
- glycan array binding signal (z-score) [25]: 5.21
- glycan array binding signal (z-score) [26]: 0.593
- glycan array binding signal (z-score) [27]: 0.699
- glycan array binding signal (z-score) [28]: 7.87
- glycan array binding signal (z-score) [29]: -0.262
- glycan array binding signal (z-score) [30]: -0.269
- glycan array binding signal (z-score) [31]: -0.267
- glycan array binding signal (z-score) [32]: -0.265
- glycan array binding signal (z-score) [33]: 0.019
- glycan array binding signal (z-score) [34]: 1.65
- glycan array binding signal (z-score) [35]: -0.253
- glycan array binding signal (z-score) [36]: 0.393
- glycan array binding signal (z-score) [37]: 3.09
- glycan array binding signal (z-score) [38]: 3.26
- glycan array binding signal (z-score) [39]: 5.28
- glycan array binding signal (z-score) [40]: -0.264
- glycan array binding signal (z-score) [41]: -0.26
- glycan array binding signal (z-score) [42]: -0.259
- glycan array binding signal (z-score) (Fuc(a1-3)GlcNAc): -0.261
- glycan array binding signal (z-score) [43]: -0.27
- glycan array binding signal (z-score) [44]: -0.265
- glycan array binding signal (z-score) [45]: -0.271
- glycan array binding signal (z-score) [46]: -0.264
- glycan array binding signal (z-score) [47]: -0.26
- glycan array binding signal (z-score) [48]: -0.258
- glycan array binding signal (z-score) [49]: -0.273
- glycan array binding signal (z-score) [50]: -0.265
- glycan array binding signal (z-score) [51]: -0.265

Source: the supplement of paper PMC8728848
